# In PubChem BioAssay AID1508623 (National Center for Advancing Translational Sciences (NCATS), 2021):
# About 450 (0.94%) of roughly 48,000 compounds were called active. Roughly 19% stayed inconclusive and do not appear here. Calls follow the shape of the dose curve; as a rule, active = well fitted inhibition curve with a large enough effect; inconclusive = small, poorly fitted or top-dose-only effect; inactive = no such curve, though single readings can be large or run the other way. The list shows a part of the results.
# Assay: Primary qHTS for Identification of Small Molecule Inhibitors of Huntingtin Promoter Activity; also: nearly all actives have a fitted effect of over 50% in size
# Details: HEK293 HTT promoter firefly luciferase reporter (activity 0% = vehicle and -100% = no light), 24 h; series mostly up to 57.5 µM; activity change, negative = inhibition: at the top concentration
# Procedure, shortened: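 Quantitative HTS used concentration series of up to 57.5 uM final on HEK293 luciferase reporter cells, 24 h at 37 degrees C. Readout was Dual-Glo firefly luminescence.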
row,Compound,"activity change, negative = inhibition"
1,CCSc1ccc(C(=O)Nc2ccc(-c3nc4ccc(C)cc4s3)cc2)cc1,inactive: -7.71%
2,CCC(CC)C(=O)OCc1cc(=O)n2nc(C3CCCCC3)sc2n1,inactive: -2.49%
3,CC(C)(C)OC(=O)N1CCC(c2c(C(=O)NCCc3ccsc3)cnn2-c2ccccc2Cl)CC1,inactive: -8.46%
4,COc1ccc(N2CC(NC(=O)COc3ccc(F)cc3)CC2=O)cc1OC (stereo not drawn),inactive: -8.19%
5,CCOCCn1c(C2CCN(CCc3ccc(C(C)(C)C(=O)O)cc3)CC2)nc2ccccc21,inactive: -0.523%
6,CCOC(=O)CC(NC(=O)c1cc2cc(Br)cc(OC)c2oc1=O)c1ccc(OC)cc1 (stereo not drawn),inactive: -9.68%
7,CCOC(=O)C(=O)NCC(c1cccnc1)N1CCN(c2ccccc2)CC1 (stereo not drawn),inactive: -6.2%
8,CCC1CN(C(=O)NCc2ccccc2)c2cc(Cl)ccc2O1 (stereo not drawn),inactive: -15.7%
9,CCOC(=O)c1ccc(NC(=O)CSc2ccc(-c3ccccn3)nn2)cc1,inactive: -28.7%
10,CCN(CC)c1cc(C)c2cc(NC(=O)c3ccccc3Cl)ccc2n1,inactive: -12.6%
11,COc1ccc(S(=O)(=O)NCCc2nnc3ccc(SCC(=O)Nc4cc(C)cc(C)c4)nn23)cc1,inactive: -11.7%
12,Cn1c(=O)n(C)c2cc(N3CCOCC3)c(NC(=O)c3ccc(Cl)cc3)cc21,inactive: 10.2%
13,O=C(NCc1ccc2c(c1)CCN2C(=O)c1ccncc1)c1ccccc1Cl,inactive: -6.96%
14,Cn1c(=O)c2c(nc(CN3CCN(c4ccccc4F)CC3)n2Cc2ccccc2F)n(C)c1=O,inactive: -13.9%
15,COc1ccc(OC)c(CCNC(=O)c2cc3cccc4c3n2CC(C)S4)c1 (stereo not drawn),inactive: -27.1%
16,CCSc1ncc(Cl)c(C(=O)Nc2ccc(S(=O)(=O)Nc3ncccn3)cc2)n1,inactive: -5.88%
17,COc1cccc(CNC(=O)CCCn2ncn3c(cc4occc43)c2=O)c1OC,inactive: -10.9%
18,CCCOC(C(=O)OC1CCN(C)CC1)(c1ccccc1)c1ccccc1,inactive: -13.1%
19,Cc1cccc(C(=O)Nc2nc3nc(-c4ccccc4)cc(=O)n3[nH]2)c1,inactive: -15.4%
20,CCOc1ccc(CCNC(=O)C2CCN(Cc3nc(-c4ccc(OC)c(OC)c4)oc3C)CC2)cc1OCC,inactive: -1.5%
21,COc1cc(-c2nc(-c3ccc4c(c3)[nH]c(=O)n4C)no2)cc(OC)c1OC,inactive: -10%
22,CCOc1ccccc1NC(=O)C1CCN(S(=O)(=O)c2ccc3[nH]c(=O)ccc3c2)CC1,inactive: -5.51%
23,Cc1ccn2c(=O)cc(COc3ccc(NC(=O)COc4ccccc4)cc3)nc2c1,inactive: -4.72%
24,CCC(=O)N1CCc2cc(Br)cc(S(=O)(=O)N3CCCC(C(=O)NCc4ccc(F)cc4)C3)c21 (stereo not drawn),inactive: -2.48%

row,Compound,"activity change, negative = inhibition"
1,N#Cc1ccccc1NC(=O)C(=O)NCCc1csc(-c2ccc(C(F)(F)F)cc2)n1,inactive: -1.91%
2,CCc1ccc(NC(=O)COC(=O)CCCC2=NS(=O)(=O)c3ccccc3N2)cc1,inactive: 0.321%
3,Cc1ccc2nc(COc3ccccc3NC(=O)c3ccccc3C)cc(=O)n2c1,inactive: 6.3%
4,COc1ccc(-c2nnc(SCC(=O)Nc3cc(OC)ccc3OC)nc2-c2ccc(OC)cc2)cc1,inactive: -9.54%
5,CCc1cccc(C)c1NC(=O)Cn1c(=O)n(-c2ccc(C)cc2)c(=O)c2c1cnn2C,inactive: -8.36%
6,COc1ccc(CCn2c(=O)c3cccnc3n(CC(=O)Nc3c(C)cccc3C)c2=O)cc1OC,inactive: 2.28%
7,Cc1cccc(CCNC(=O)c2ccc3c(c2)nc2n3CCC(C)C2)c1 (stereo not drawn),inactive: 4.09%
8,COc1ccc(OC)c(NC(=O)c2ccc3c(SCC(=O)O)c4c(nc3c2)CCCC4)c1,inactive: -21.5%
9,COc1cc2c(cc1OC)C1CC(=O)C(CC(C)C)CN1CC2 (stereo not drawn),inactive: -6.99%
10,Cc1cccc(-c2noc(-c3ccc(NCc4ccco4)c([N+](=O)[O-])c3)n2)c1,inactive: 23.6%
11,O=C(c1ccco1)N1CCN(c2nc3c(F)cc(F)cc3s2)CC1,inactive: 20.6%
12,Nc1ccc(S(=O)(=O)NC(=O)c2ccccc2)cc1,inactive: 7.21%
13,COc1cccc(-c2ccc(-c3noc(-c4ccccc4Br)n3)c(OC)n2)c1,inactive: -1.67%
14,CCC(=O)N1c2ccccc2CC1C(=O)NCc1cccc(OC)c1OC (stereo not drawn),inactive: -10.1%
15,COc1cc(OC)cc(C(=O)Nc2cc(-c3nc4ccccc4[nH]3)ccc2C)c1,inactive: -24.5%
16,O=C(/C=C/c1ccco1)Nc1ccc(F)cc1,inactive: 94%
17,COC(=O)c1c(SC)nc2ccccc2c1OCc1ccc(Br)cc1,inactive: -23%
18,CCOC(=O)C1CCCN(c2nc3c(S(=O)(=O)c4ccc(Br)cc4)nnn3c3ccsc23)C1 (stereo not drawn),inactive: 4.89%
19,CCOC(=O)CN1CCCC1=O,inactive: -1.87%
20,OC[C@H]1O[C@@H](O[C@@H]2[C@@H](CO)O[C@](O)(CO)[C@H]2O)[C@H](O)[C@@H](O)[C@H]1O,inactive: 8.34%
21,Cc1ccccc1CNC(=O)c1nn(-c2ccccc2F)nc1CO,inactive: -25.8%
22,O=c1c2sccc2n(Cc2cc(=O)n3ccccc3n2)c(=O)n1-c1cc(F)ccc1F,inactive: -6.77%
23,CCn1nc(-c2ccccc2)c(-c2ccccc2)c(C(=O)Nc2ccc(S(N)(=O)=O)cc2)c1=O,inactive: -4.63%
24,COc1ccc(C(=O)Nc2ccc(-c3nnc4n3CCCCC4)cc2)cc1,inactive: -10.3%
